Laboratory results published in article PMC6212790.
The other results are listed elsewhere or left out. At the low end of the ranking the order means little.

Each sequence was assayed against T1, GST-Rok-C97-191 (UniProt O34857) (assay: protein binding microarray). Conditions: Rok is a gene silencer of Bacillus subtilis; high values mean tight binding; most listed sequences are background and not binding sites; double strand, one strand shown.
T1 sequence: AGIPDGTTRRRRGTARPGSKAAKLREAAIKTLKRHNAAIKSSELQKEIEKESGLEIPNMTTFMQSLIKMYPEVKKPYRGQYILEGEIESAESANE
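Also: rank score from −0.5 (least bound) to 0.5 (best bound).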

Row | Sequence | binding signal [E-score]
1 | AGCTCCGA | -0.023
2 | CGTGAGAG | 0.015
3 | ATCCTATC | 0.16
4 | GTCACGTA | 0.0715
5 | GCAGTGTA | 0.159
6 | AAGTCGAT | -0.0475
7 | CCCTTGGC | -0.209
8 | AAACTTAT | 0.224
9 | ACGACCTG | -0.171
10 | ACGAGTCG | -0.00473
11 | AAGACCAG | -0.258
12 | GCCGACAC | -0.137
13 | CACCTGAC | -0.093
14 | CCAACCCA | 0.0477
15 | ACAACTTC | 0.0473
16 | ATCGACGA | 0.0426
17 | TATGCGCA | 0.136
18 | AACGAGGA | -0.183
19 | GTGGCCAC | -0.224
20 | GCCCGGAA | -0.202
21 | CTGCTGTC | -0.104
22 | AACACATA | 0.115
23 | ATGTTTAA | 0.115
24 | GAAGTTGC | 0.0541
25 | GGACAACA | -0.125

Row | Sequence | binding signal [E-score]
26 | ATAGTGCG | 0.187
27 | GCAAATAC | 0.159
28 | CTTAAAGC | -0.0585
29 | GAACTTGA | 0.101
30 | GGGACGTA | -0.0982
31 | CAAAGAAA | 0.00518
32 | AGATTTGC | 0.0206
33 | CAACCTTC | -0.0838
34 | AGTCTTTG | -0.101
35 | GCCGCAAA | -0.148
36 | CACGTTCC | -0.146
37 | TCACTGGA | -0.0749
38 | TGCAAGAA | -0.116
39 | AGGGCTGA | -0.189
40 | GCGTGTCA | -0.16
41 | AAACTGTA | 0.148
42 | ACTTTTGA | 0.0573
43 | ACGCGTAA | 0.123
44 | CACATAGG | 0.00513
45 | TACCATGA | 0.241
46 | CAACGAAC | -0.0949
47 | CCGCGAAG | -0.0922
48 | CCTGTGAC | -0.153
49 | ACATTTCG | 0.246
50 | GCTAAGCC | -0.256

Row | Sequence | binding signal [E-score]
51 | ATTACGAA | 0.221
52 | CATTGTAA | 0.111
53 | CTAGGAGA | 0.068
54 | TGGAAGAA | -0.0659
55 | ACAGGTCA | -0.0801
56 | ATGGATCA | -0.0277
57 | CCCACTAC | 0.0131
58 | TGCGAGAA | -0.00388
59 | AAACGCGC | -0.0739
60 | CAGGTATA | 0.183
61 | CCCAAGTC | -0.11
62 | GCAGGGCC | -0.217
63 | GTTATTGA | 0.0258
64 | CCAAAGGA | -0.359
65 | GCCACCCA | -0.15
66 | ACATAATA | 0.156
67 | AGAGCACC | -0.00221
68 | GCGGTGAA | -0.061
69 | GCGTGAGA | -0.00817
70 | AAGTACGG | 0.122
71 | CCTGTATA | 0.157
72 | AACTAGCG | 0.256
73 | CAGCAACC | -0.128
74 | AGTAATGA | 0.148
75 | GCAGGAAA | -0.0289

Row | Sequence | binding signal [E-score]
76 | CAACACTA | 0.276
77 | AAGAGGTA | 0.181
78 | CTCGCTCA | -0.0517
79 | ACTAGAAT | 0.349
80 | CGGCCCGC | -0.292
81 | AGGATCCA | -0.127
82 | GCTTCCCA | -0.244
83 | AAATTAAA | 0.205
84 | ATGTGACC | -0.0111
85 | ACCATCCG | -0.103
86 | AGCCCGAT | -0.027
87 | CCCGAGCA | 0.00679
88 | ACAAACTA | 0.382
89 | GACAAGAC | -0.266
90 | AAGGAGTC | -0.111
91 | ACTAATAC | 0.248
92 | GACCGGTC | -0.132
93 | CATACACG | -0.108
94 | GAACTTAC | -0.0918
95 | AAGGCCCA | -0.167
96 | TCAATTGA | 0.148
97 | GACTAGTC | 0.0585
98 | TAGATCGA | 0.184
99 | CCCCCGCG | -0.134
100 | GAATCTCA | -0.149

Row | Sequence | binding signal [E-score]
101 | TATAACGA | 0.336
102 | CGTCAGCC | -0.124
103 | AGCATGAT | 0.161
104 | AGGGCTGG | -0.235
105 | CTCGATGC | -0.0432
106 | AAGACAGC | -0.184
107 | AGCCGCGC | -0.129
108 | CATAGCCA | -0.0756
109 | GGTCATCA | -0.165
110 | CTTACCGA | 0.0281
111 | CGGTGTCC | -0.364
112 | AGACCGCT | -0.264
113 | GATTTACA | 0.17
114 | CACATTTC | 0.224
115 | CCCACCCA | -0.0813
116 | CTCAAACC | -0.112
117 | TATCGGAA | 0.131
118 | GTTCAGCA | 0.0486
119 | AGTTGAAA | 0.0127
120 | CATCCGAG | -0.0562
121 | AAGTGCCT | -0.00517
122 | CATACGCG | 0.0157
123 | TTACCTAA | 0.307
124 | AGCCAGCT | -0.19
125 | ACAATAGT | 0.233

Row | Sequence | binding signal [E-score]
126 | AATTCTTG | 0.0644
127 | CACTTTGG | -0.0473
128 | ACGAACAA | 0.08
129 | ACGATTAG | -0.0748
130 | AACGACAT | 0.196
131 | CCATGCTA | 0.153
132 | ACCCAAAA | 0.0965
133 | CCGCGCGG | -0.127
134 | GAAACTTA | 0.267
135 | CGCAAGTC | -0.0825
136 | ATACGGTA | 0.278
137 | ACAGCACA | 0.107
138 | AGGCGCGC | -0.315
139 | ATTCTTCA | 0.0472
140 | AAGGACGT | -0.0237
141 | AGAATAAG | 0.185
142 | AAGTGCGC | 0.0257
143 | CTCCAGTA | -0.0378
144 | GCCTCACA | -0.143
145 | CAGTATTC | -0.233
146 | CACGTGAA | -0.0163
147 | GAATGAGA | -0.0102
148 | GGTAGCAA | 0.239
149 | AGTTGCCG | -0.136
150 | ACATACCG | 0.239

Row | Sequence | binding signal [E-score]
151 | ACCCAGGC | -0.329
152 | GTTTTGGA | -0.132
153 | CTCGTATA | 0.0281
154 | GTGCGACA | -0.095
155 | GATTGAGC | -0.0279
156 | CTGACATA | -0.188
157 | CATTACTA | 0.32
158 | TACCTAAA | 0.369
159 | AGGCGATG | -0.0796
160 | GAGCCCGC | -0.242
161 | GACACGCA | -0.104
162 | CATGGACA | -0.0157
163 | ATGGCTGC | -0.2
164 | CTGGGGGA | -0.35
165 | ACAGGATG | -0.113
166 | ATATACGA | 0.199
167 | GATTAAGA | 0.0702
168 | CGGCGCTC | -0.257
169 | GAATAATA | 0.349
170 | GGGATTGA | -0.136
171 | AAGTAGCG | 0.125
172 | AGGAGGCG | -0.398
